Structures are written as SMILES. This is one part of the list. The main result of the screen is listed elsewhere. These columns were measured beside it and carry no call.

20 molecules from PubChem BioAssay AID1745853 (National Center for Advancing Translational Sciences (NCATS), 2022) can be followed below.

Holding throughout (assay): Primary Screen for Target Class Profiling of Small Molecule Inhibitors of Methyltransferases
Assay [1] concerns the target Glycine N-methyltransferase (Homo sapiens) (UniProt Q14749). As to conditions: purified enzyme, MTase-Glo SAH luminescence; measured here: GNMT inhibition; at 40 µM; stronger effect = lower value. In outline:
(§1)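 Each enzyme was assayed with SAM and its substrate. SAH formation detected by MTase-Glo luminescence; single-point 40 uM screen[…].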

The target of assay [2] is Guanidinoacetate N-methyltransferase (Homo sapiens) (UniProt Q14353). The conditions noted are these: purified enzyme, MTase-Glo SAH luminescence; measured here: GAMT inhibition; at 40 µM; stronger effect = lower value. In outline: as §1
Assay [3] deals with Histamine N-methyltransferase (Homo sapiens) (UniProt P50135). The conditions noted are these: purified enzyme, MTase-Glo SAH luminescence; measured here: HNMT inhibition; at 40 µM; stronger effect = lower value. In outline:
as §1

For assay [4], the target named is Nicotinamide N-methyltransferase (Homo sapiens) (UniProt P40261). As to conditions: purified enzyme, MTase-Glo SAH luminescence; measured here: NNMT inhibition; at 40 µM; stronger effect = lower value. In outline:
as §1

For assay [5], the target named is Phenylethanolamine N-methyltransferase (Homo sapiens) (UniProt P11086). The conditions noted are these: purified enzyme, MTase-Glo SAH luminescence; measured here: PNMT inhibition; at 40 µM; stronger effect = lower value. In outline: as §1
On the % scale 0 is the no-effect control and ±100 the full control effect.

On to `COC(=O)C12C(=O)C(C)=C(O)C1(C)C(C)=CC1C34CCC(OC3=O)C(C)(C)C4CCC12C` (configuration not stated), for which the activity change, negative = inhibition was 4.65% in assay [1]; 6.49% in assay [2]; 5.41% in assay [3]; -6.48% in assay [4]; 6.26% in assay [5].
For `Cc1ncsc1CCC(=O)N1CC[C@@H]2[C@@H](CCC(=O)N2CCN)C1`, in that order: -4.43%, -6.42%, -1.28%, -10.9% and -6.51%.
The matching figures for `CCC(C(=O)N1CCN(c2ncccn2)CC1)n1ccc2cc(S(=O)(=O)N3CCCCC3)ccc21` (configuration not stated): 0.464%, 4.82%, 2.43%, 2.99% and 3.44%.
For `C=C1C(OC(C)=O)[C@@]23CCC4[C@](C)(C(=O)O)CCC[C@@]4(C)[C@]2(O)CC[C@H]1C3` (some centres not stated), in that order: -5.82%, -4.98%, -5.91%, -15.1% and -13.4%.
On to `COc1ccc(CNC(=O)C2(C)Cn3cnc(C(=O)NCc4ccc(C)cc4)c3C(=O)N2C2CC2)cc1` (configuration not stated), for which the activity change, negative = inhibition in assay [1] is -3.17%; in assay [2] it was 0.015%; in assay [3], 3.48%; in assay [4] it was 0.966%; in assay [5] it was 0.541%.
For `CCOc1ccc(-n2c(C(C)N(Cc3cccnc3)C(=O)Cc3ccc(F)c(C(F)(F)F)c3)nc3ncccc3c2=O)cc1` (configuration not stated), in that order: -3.77%, 21.9%, 7.08%, -0.928% and 10.6%.
`CCOC(=O)c1cc2n(n1)CC(C)(C(=O)NC1CCCCCC1)N(c1ccc(F)cc1F)C2=O` (configuration not stated): the activity change, negative = inhibition in assay [1] was 3.38%; in assay [2], 1.31%; in assay [3], 1.25%; in assay [4], 10.5%; in assay [5], -0.064%.
For `O=c1ccc2ccc(O)c(O)c2o1`, the activity change, negative = inhibition in assay [1] is -12.5%; in assay [2], 8.81%; in assay [3], 9.63%; in assay [4] it was -3.8%; in assay [5] it was 2.78%.
The matching figures for `Cc1ccc(CNC(=O)CCn2ccc3cc(S(=O)(=O)N4CCCC4)ccc32)o1`: 4.55%, 1.58%, 4.37%, 7.98% and 3.67%.
Regarding `CCCC1c2ccc(C)n2CCN1C(=O)Nc1cccc(C)c1` (configuration not stated), the activity change, negative = inhibition is 2.78% in assay [1]; -1.99% in assay [2]; -4% in assay [3]; 4.63% in assay [4]; -1.87% in assay [5].
As to `CC(=O)N1CCN(C(=O)Cc2ccc(Nc3ncc(F)c(Nc4ccc(C(=O)Nc5ccccc5Cl)cc4)n3)cc2)CC1`, the activity change, negative = inhibition in assay [1] is -6.69%; in assay [2] it was 21%; in assay [3], -8.98%; in assay [4] it was -10.4%; in assay [5], -3.79%.
Take `O=C(C1CCCN([S+](=O)([O-])c2cccs2)C1)N1CCC(c2nc3ncccc3[nH]2)CC1` (configuration not stated): the activity change, negative = inhibition in assay [1] is -7.36%; in assay [2], -5.99%; in assay [3] it was -5.2%; in assay [4], -21.3%; in assay [5] it was -10.4%.
The matching figures for `CCCn1c(=O)c2ccc(C(=O)NC3CCCC3)cc2n2c(SCC(=O)NC3CCCCC3)nnc12`: 6.41%, 0%, 8.93%, 7.39% and 7.69%.
In the case of `COc1ccc(OC)c(S(=O)(=O)N2CC[C@@H]3COCCN(C)[C@@H]3C2)c1`, the activity change, negative = inhibition in assay [1] is -5.85%; in assay [2], 1.97%; in assay [3], -0.889%; in assay [4], -4.08%; in assay [5], -5.61%.
As to `OCC1OC(Oc2cc(O)cc(/C=C/c3ccc(O)cc3)c2)C(O)C(O)C1O` (configuration not stated), the activity change, negative = inhibition in assay [1] is -5.09%; in assay [3], 5.4%.
Take `Cc1nn(C)c(C)c1CN(Cc1ccnc2ccccc12)C1CC1`: the activity change, negative = inhibition in assay [1] was -12.4%; in assay [2], -5.8%; in assay [3], -5.88%; in assay [4] it was -26.4%; in assay [5], -11.5%.
For `CSc1ccc(CNC(=O)c2cc3n(n2)CC(C)(C(=O)NCc2ccc(C)cc2)N(C)C3=O)cc1` (configuration not stated), in that order: -2.89%, -0.248%, -0.411%, -8.52% and -4.59%.
The matching figures for `Cc1ccc(CNC(=O)C2(C)Cn3cnc(C(=O)NCCc4ccc(Cl)cc4)c3C(=O)N2C2CC2)cc1` (configuration not stated): -7.23%, 0%, 5.48%, -7.5% and 0.008%.
For `CCOC(=O)c1cc2n(n1)CC(C)(C(=O)NCCC(C)C)N(c1ccc(CC)cc1)C2=O` (configuration not stated), in that order: -0.648%, 4.51%, 7.05%, -0.404% and -0.046%.
As for `CCCn1c(=O)c2ccccc2n2c(SCC(=O)NCc3ccc(OC)cc3)nnc12`, the activity change, negative = inhibition in assay [1] is -5.23%; in assay [2] it was 2.68%; in assay [3], 1.95%; in assay [4], -0.96%; in assay [5] it was 0.849%.
